Holding throughout (test): Primary Screen for Target Class Profiling of Small Molecule Inhibitors of Methyltransferases
In experiment [1] the target is Glycine N-methyltransferase (Homo sapiens) (UniProt Q14749). Conditions: purified enzyme, MTase-Glo SAH luminescence; measured here: GNMT inhibition; at 40 µM; stronger effect = lower value. The method, boiled down: (§1)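 Each enzyme was reacted with SAM and its substrate, with compounds tested once at 40 uM; SAH formed was read by MTase-Glo luminescence.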
Experiment [2] addresses Guanidinoacetate N-methyltransferase (Homo sapiens) (UniProt Q14353). Conditions: purified enzyme, MTase-Glo SAH luminescence; measured here: GAMT inhibition; at 40 µM; stronger effect = lower value. The procedure, abridged: as §1
For experiment [3], the target named is Histamine N-methyltransferase (Homo sapiens) (UniProt P50135). As to conditions: purified enzyme, MTase-Glo SAH luminescence; measured here: HNMT inhibition; at 40 µM; stronger effect = lower value. The method, boiled down: as §1
For experiment [4], the target named is Nicotinamide N-methyltransferase (Homo sapiens) (UniProt P40261). As to conditions: purified enzyme, MTase-Glo SAH luminescence; measured here: NNMT inhibition; at 40 µM; stronger effect = lower value. The procedure, abridged: as §1
In experiment [5] the target is Phenylethanolamine N-methyltransferase (Homo sapiens) (UniProt P11086). As to conditions: purified enzyme, MTase-Glo SAH luminescence; measured here: PNMT inhibition; at 40 µM; stronger effect = lower value. The method, boiled down:
as §1

SMILES strings stand for the structures. Some of the results follow. Shown are side measurements of this screen, not its main read-out; they come without a call.
On the % scale 0 is the no-effect control and ±100 the full control effect.

For `Cn1c(Cn2cccn2)nnc1C1CC(Nc2ncnc3sccc23)C1` (stereo not given), the activity change, negative = inhibition in experiment [1] was -7.21%; in experiment [2], -5.72%; in experiment [3], -2.81%; in experiment [4], -19.4%; in experiment [5], -5.84%.

With `CC(C)CCNC(=O)N1c2ccccc2CC1c1noc(C2CCOCC2)n1` (stereo not given), the activity change, negative = inhibition is -2.32% in experiment [1]; -2.93% in experiment [2]; -0.709% in experiment [3]; -5.01% in experiment [4]; 0.261% in experiment [5].

Regarding `COc1ncccc1C(=O)N1CCc2onc(-c3cccc4ccccc34)c2C1`, the activity change, negative = inhibition is -9.96% in experiment [1]; -1.37% in experiment [2]; -0.516% in experiment [3]; -12.6% in experiment [4]; -3.42% in experiment [5].

On to `CC(C)NC(=O)c1ccc2c(=O)n(Cc3ccccc3)c3nn(Cc4ccccc4)c(=O)n3c2c1`, for which the activity change, negative = inhibition in experiment [1] stood at 8.21%; in experiment [2], 0.274%; in experiment [3], 9.57%; in experiment [4], 8.89%; in experiment [5], 9.63%.

`O=C(O)c1cc(=O)cc(C(=O)O)[nH]1`: the activity change, negative = inhibition in experiment [1] was -3.6%; in experiment [2], 9.15%; in experiment [3] it was 2.04%; in experiment [4], -0.502%; in experiment [5], 8.97%.

As for `C=C(C)[C@@H]1CC[C@]2(C(=O)O)CC[C@]3(C)C(CCC4[C@@]5(C)C[C@@H](O)[C@H](O)C(C)(C)C5CC[C@]43C)C12` (stereo not given in full), the activity change, negative = inhibition is -12.8% in experiment [1]; 4.44% in experiment [2]; 3.69% in experiment [3]; -13% in experiment [4]; 1.24% in experiment [5].

As for `CC(C)OCCCNC(=O)C1c2c(n(C)c3ccccc23)SCC(=O)N1c1ccc(F)cc1` (stereo not given), the activity change, negative = inhibition in experiment [1] is 1.73%; in experiment [2], 0%; in experiment [3], -0.892%; in experiment [4], 2.16%; in experiment [5], 3.85%.

On to `CCCn1c(=O)c2ccccc2n2c(SCC(=O)NC(C)C)nnc12`, for which the activity change, negative = inhibition in experiment [1] amounted to 2.04%; in experiment [2], 0.471%; in experiment [3], 5.7%; in experiment [4] it was 2.09%; in experiment [5], 1.29%.

As to `CNC(=O)c1cc(Oc2ccc(NC(=O)Nc3cc(C(C)(C)C)nn3-c3ccc4ncccc4c3)c(F)c2)ccn1`, the activity change, negative = inhibition in experiment [1] was 5.94%; in experiment [2] it was 6.87%; in experiment [3], 12.2%; in experiment [4], -27.2%; in experiment [5], 5.2%.

Take `CCCn1c(=O)c2ccc(C(=O)NC(C)C)cc2n2c(SCc3ccccc3C)nnc12`: the activity change, negative = inhibition in experiment [1] amounted to 3.55%; in experiment [2] it was 0%; in experiment [3], 4.09%; in experiment [4], 1.99%; in experiment [5] it was 0.912%.

In the case of `Cc1ccc(C)c(N2C(=O)c3cc4ccccc4n3CC2(C)C(=O)NC2CCCC2)c1` (stereo not given), the activity change, negative = inhibition in experiment [1] is -0.181%; in experiment [2] it was 0.486%; in experiment [3] it was -3.62%; in experiment [4], 1.82%; in experiment [5], -4%.

As for `C/C1=C\C[C@H](O[C@@H]2O[C@H](CO)[C@@H](O)[C@H](O)[C@H]2O)/C(C)=C/[C@H]2OC(=O)[C@H](C)[C@@H]2CC1`, the activity change, negative = inhibition in experiment [1] is 3.96%; in experiment [2] it was 0.709%; in experiment [3], 9.16%; in experiment [4] it was -7.76%; in experiment [5] it was -1.5%.

In the case of `OC[C@H]1O[C@H](O[C@]2(CCl)O[C@H](CCl)[C@@H](O)[C@@H]2O)[C@H](O)[C@@H](O)[C@H]1Cl`, the activity change, negative = inhibition is -0.325% in experiment [1]; 3.17% in experiment [2]; 9.03% in experiment [3]; -10.7% in experiment [4]; 4.26% in experiment [5].

As for `CC(CNC(=O)CCCc1nnc2n3nc(-c4ccccc4)nc3c3ccccc3n12)c1ccccc1` (stereo not given), the activity change, negative = inhibition in experiment [1] was -14.8%; in experiment [2] it was 4.19%; in experiment [3] it was -6.07%; in experiment [4], -7.07%; in experiment [5], -5.5%.

With `O=C(Cc1ccc(Cl)cc1)Nc1cnccc1C(=O)O`, the activity change, negative = inhibition in experiment [1] is 2.71%; in experiment [2], 7.46%; in experiment [3], 5.75%; in experiment [4] it was -8.23%; in experiment [5], 2.52%.

In the case of `O=C(CSc1nnc2n(CCc3ccccc3)c(=O)c3ccccc3n12)NCc1ccccc1`, the activity change, negative = inhibition in experiment [1] turned out to be 6.75%; in experiment [2], 0.521%; in experiment [3], 11.2%; in experiment [4], 5.41%; in experiment [5], 5.71%.

In the case of `COC(=O)c1cc(COc2ccc3c(-c4ccccc4)cc(=O)oc3c2C)c(C)o1`, the activity change, negative = inhibition is -2.73% in experiment [1]; 3.78% in experiment [2]; 1.1% in experiment [3]; -3.8% in experiment [4]; -8.14% in experiment [5].

On to `CCCCN1C(=O)c2cc(C(=O)N3CCN(c4ccc(OC)cc4)CC3)nn2CC1(C)C(=O)NC1CCCC1` (stereo not given), for which the activity change, negative = inhibition is -0.312% in experiment [1]; 0% in experiment [2]; 2.23% in experiment [3]; -2.92% in experiment [4]; -2.76% in experiment [5].

As for `CC(C)OCCCn1c(=O)c2ccccc2n2c(=O)n(CC(=O)NCc3ccccc3Cl)nc12`, the activity change, negative = inhibition in experiment [1] was -4.38%; in experiment [2] it was 2.54%; in experiment [3], -1.55%; in experiment [4], 0.671%; in experiment [5], -2.99%.

`COc1ccccc1-c1ccc(C(=O)N2C[C@@H](N(C)C)[C@H](C(C)C)C2)cc1`: the activity change, negative = inhibition is -5.37% in experiment [1]; -7.64% in experiment [2]; -3.85% in experiment [3]; -13.1% in experiment [4]; 10.7% in experiment [5].

Take `COCC(=O)N1CCC[C@@H]1C(=O)N1CCC(N2CCOC2=O)CC1`: the activity change, negative = inhibition in experiment [1] was -6.13%; in experiment [2], -8.96%; in experiment [3], -5.01%; in experiment [4], -12.7%; in experiment [5] it was -10.9%.

For `COc1cc2c3c(cc4ccccc4c3c1O)NC2=O`, the activity change, negative = inhibition in experiment [1] was -22.4%; in experiment [2] it was 0.402%; in experiment [3], -18.6%; in experiment [4] it was -15.6%; in experiment [5] it was 1.6%.

`CC(C)C[C@H](NC(=O)[C@@H](NC(=O)c1cccc(-c2ccccc2)n1)[C@@H](C)O)B(O)O`: the activity change, negative = inhibition in experiment [1] was -10.5%; in experiment [2], -3.97%; in experiment [3], 8.71%; in experiment [4], -21.3%; in experiment [5], -6.29%.

For the compound `Cn1c(=O)n(C)c2cc(S(=O)(=O)N(Cc3ccccc3)C(=O)c3cccnc3)ccc21`, the activity change, negative = inhibition in experiment [1] was -2.57%; in experiment [2], 4.98%; in experiment [3], -2.34%; in experiment [4], 3.14%; in experiment [5], -0.546%.

In the case of `CCC(=O)N1CCC(OC2CCN(C(=O)CC3CCCCC3)CC2)CC1`, the activity change, negative = inhibition in experiment [1] is 1.3%; in experiment [2], 3.47%; in experiment [3], 3.28%; in experiment [4], -5.96%; in experiment [5], 18.3%.

Take `O=C(C1CC(=O)N(C2CC2)C1)N1CCC(Oc2ccccc2Cl)CC1` (stereo not given): the activity change, negative = inhibition in experiment [1] was -1.19%; in experiment [2] it was -10.1%; in experiment [3], -1.09%; in experiment [4] it was -4.99%; in experiment [5], -0.32%.

For the compound `Cn1c2ccc(NC(=O)c3ccccc3)cc2c(=O)n2nc(C(=O)O)cc12`, the activity change, negative = inhibition is -14% in experiment [1]; -9.17% in experiment [2]; -2.76% in experiment [3]; -16.7% in experiment [4]; -3.25% in experiment [5].

For `CC1c2cccn2CCN1C(=O)Nc1ccccc1Br` (stereo not given), the activity change, negative = inhibition is -10.5% in experiment [1]; -1.43% in experiment [2]; -6.87% in experiment [3]; -16.2% in experiment [4]; -9.83% in experiment [5].

For the compound `CCCn1c(=O)c2cc(F)ccc2n2c(SCc3ccccc3)nnc12`, the activity change, negative = inhibition in experiment [1] is -16.2%; in experiment [2] it was 0%; in experiment [3], 3.14%; in experiment [4], -4.93%; in experiment [5], 1.75%.

On to `O=C(CCn1ccc2cc(S(=O)(=O)N3CCCC3)ccc21)NCc1ccccn1`, for which the activity change, negative = inhibition in experiment [1] is -1.88%; in experiment [2], -8.16%; in experiment [3] it was 3.18%; in experiment [4] it was -5%; in experiment [5], -5.82%.

These data come from PubChem BioAssay AID1745853 (National Center for Advancing Translational Sciences (NCATS), 2022).
